Sequences with one replicate were seen in a single cluster, so their values are uncertain.
What follows are sequences tested on ATP (assay: switch fluorescence ratio, 500 uM ATP over buffer (Cy3 cluster intensity, sum of 5 cycles each) (fold (ratio)); higher = stronger signal-on switching upon ATP binding; sequences stand for … in TCGTCGGCAGCGTCAGATGTGTATAAGAGACAGTTTTTTTTTTTTTTTTTTTTTTTTT…TC). Settings: aptamer strand: ATP DNA aptamer (quencher-CACCTGGGGGAGTATTGCGGAGGAAGG + anchor), 100 nM annealed; ATP concentration: 500 uM; one replicate.
In short: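 Imaging in selection buffer was followed by imaging after 15 min with 500 uM ATP at 22 °C, for Cy3-labelled switching-strand clusters annealed to 100 nM quencher-labelled ATP aptamer on a modified Illumina MiSeq flow-cell. Five of these buffer/ATP cycles ran, separated by NaOH stripping and re-annealing. The fluorescence ratio per cluster is summed target-cycle over summed buffer-cycle Cy3 intensity, averaged per switch-domain sequence; clusters outside 100-1000 RFU were removed.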
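Also: ATP exposure 15 min at 22 °C before imaging.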

Sequence | switch fluorescence ratio
AAAAGTACAT | 1.19
TCCCGTGAAA | 1.03
ACGCTCAGG | 1.17
CCCCCGACAT | 3.88
TGAATGATCC | 1.03
AATGAGATTT | 1.01
CTCAACTGGT | 1.04
GGTTAATGCA | 0.993
GGTCTATG | 0.985
TAAACGTACG | 1.41
AGTAAAAGGT | 0.949
CAGGGTTAAC | 1.05
CTGCGACGGG | 1.03
GTCGGTATT | 0.947
TCCAGGTTT | 1.4
TAGATGCCTT | 1.03
TAGAATGAAA | 1.01
ACTTTTCAC | 1.1
GGTGTAGACT | 0.944
CTGTTAAGTG | 0.956
TAGAAGTTCC | 1.1
CAGGCGGCCG | 1.03
ATTTAATGAC | 0.994
CATTAGGCTT | 0.987
TCGAGGTCCG | 0.919
CGTTAATGTG | 1.02

Sequence | switch fluorescence ratio
ATCGATTTAA | 0.981
ATGCCCGACA | 1.01
CAATTATGTT | 0.968
GCCGTGGCGA | 1.03
AGTGAGATTC | 0.975
TAGAGTGCTA | 0.973
GTCGAGGAGG | 0.998
ACGCAGAATC | 1.55
ACAGTGCCCA | 1.04
CGGGTTCTTC | 0.984
TAAACCGGCA | 1.31
GGGCGCGCAC | 1.03
GGGGGCCATT | 1
CTACTAGGTT | 1.01
ACTAGGAATT | 1.03
GTCCTGCCGG | 1.07
AGGTTCCGGC | 0.979
GAAAGGTGAG | 0.986
GGACTAATAA | 0.995
ACACTGTTCT | 0.983
TGAGATGATG | 1.02
GAATCAGCTG | 0.981
CCAGTTGGCC | 0.992
TTACAATACA | 1.19
CCATCGGTTG | 0.982
TTGGTTCAGA | 1.03

Sequence | switch fluorescence ratio
TACACATTCA | 1.08
CGCTTCTCAG | 1.03
CGAGGTGGCC | 1.02
GCCAAAAGTT | 1.05
TCGACATTCA | 1.03
GGCTTTCTAG | 0.978
TCCACTCTCT | 0.98
GTTTATTTGT | 1
ACCTTTCGAT | 1.5
ATCGGATTTG | 1.01
GTTTGTTTGA | 1.01
TTAGATGGG | 0.988
CTCGGTTGCA | 1
ACCCGTCTGG | 1.05
AGGTCAGCGG | 0.938
GCTTGGTGGG | 1.01
CGACGACATC | 3.66
AACATTGTTA | 0.993
TTCCGTATAA | 1.59
CGCCGCCAAG | 2.38
GGCCGCGCTT | 0.984
TGATCACAGA | 0.949
TCCGTTTCCA | 1.05
CAGGGTTACC | 1
TGTC | 0.993
ACACTTGCGG | 1.02

Sequence | switch fluorescence ratio
ATTAAACCCA | 0.984
TTGATTATGA | 1.02
ACGGCCGCGG | 1.03
ATAACAGGGG | 1.23
ATTTACTCTA | 1.03
TCCGCTGATG | 1.63
GAGGTCCCGC | 1.04
GGGGTTACGA | 1.02
ACATACTCAC | 1.37
ATTTCCACG | 0.978
TGCCATATCC | 1.08
TCGGGGAGCA | 1.03
AAGTAGCCAA | 0.948
AGAAACGTCC | 1.45
ACGTTTTAGA | 1.04
AACACTTATT | 1.01
TATCCTGTGG | 0.963
GATTGGATTT | 0.994
AGTTGTTAAG | 1.02
TTAACGGGG | 1.22
ATCGTTCCGG | 1
TACGTTAATC | 1.28
TGCATTTTA | 1.04
CTGATTAATC | 1.01
TAGCGGGACA | 1
GAGGTCTATT | 1.02

Sequence | switch fluorescence ratio
TCCGGGGGCT | 1.13
AACCTGTTG | 1.06
TTTATGGACC | 1.01
TCCATGAGTC | 1.01
GTGATTCGGA | 0.987
CTAGTAAGCC | 1
TTAGTGCCC | 1.08
GTCCGGGGAT | 1.01
TACTTGCCCG | 1.07
TTGCTTGACA | 1
TAGCTTAAGT | 0.995
AATTTTGGG | 1
TTATAGCGCG | 0.989
GGTTCCAAGA | 0.968
TTCTGAATCC | 0.99
CTAGTTACC | 1.01
CCGCTGTAG | 1.32
GGTATTCCCA | 1.01
GCCCGGCGTC | 0.972
CAGCAGGTGA | 2.24
TTGTTCGTTC | 0.981
CAAGAATTGT | 1.03
AATGTGGTTA | 0.973
CACGTGTTAG | 1
GTAATACAAT | 0.968
CTTAACACG | 1.06

Sequence | switch fluorescence ratio
GGGATTTTAG | 0.994
CTAGGACGCA | 1.47
ACAACCCCTA | 1.14
TCTTGTAGTA | 0.982
ATTTTCGATA | 1.03
GTTATAATTT | 0.978
GGGGCTAGGC | 1.03
GTATATTACT | 1.03
CTCCTTGTCA | 1.02
GGGGTTTCG | 0.987
CTGTTATAGA | 0.984
AATCTTAG | 1.01
TGCTCCACAT | 2.3
TGATCATGAA | 1.02
CACAGATGGC | 1.01
TGGCAATCTG | 1.52
ACGGAAAGG | 1.06
TTGAGAAGCG | 0.985
CAGACCTTTC | 2.26
TGGGCTGCGC | 0.981
CGTACTGTTT | 0.995
GATGGCCGCA | 1.04
TATGCTAATT | 0.987
GAAAAAATTC | 1.05
CGTCGTGGTT | 1.03
GGAAAGCGAC | 1.2

Sequence | switch fluorescence ratio
CAAATTGATC | 0.991
AATGAACATT | 0.993
AAATAACTCT | 1
TATAGCCTTT | 1.02
ATCGCCTCGG | 0.997
GACGTGGGTG | 0.963
CCGGGCTCGC | 1.12
TTCCTTTCAT | 0.98
TAGTAGAGGC | 0.924
ATTTGTACGT | 1.12
ATATATCTGT | 1.02
CTGTCTGCTA | 1.21
GGGATAGCTG | 1.05
CGCCTTTTTA | 1
TAATGTTAT | 0.974
CTACTTTCCG | 1.06
TTGAGATGTA | 0.984
TAAAGGAGC | 0.966
ATTGAGTAAG | 0.984
CCAGGTACTC | 1.33
ATGGCTTGTT | 0.966
GTAACGTCCG | 1
CATTGCAACG | 1.01
ACTCAAGCGC | 1.15
ATAACTAGCC | 0.97
TCGTGCGATA | 1.16

Sequence | switch fluorescence ratio
TCGTCGATTG | 0.972
GTTGCCGGAA | 0.998
CAAGCTTTTA | 1.02
CGGAAGGTGT | 1.23
ATTAATTTAA | 0.984
GTACTGCCCA | 1.14
TATAGGAGTG | 0.921
GGCATCATTG | 1
AGAGATTGCT | 0.936
TTAAAGCCCG | 1.01
AGGGACACGT | 1.01
CGTCGGAACC | 1
GTCACAGAAT | 1.04
CAAAGCAGGG | 1.1
AGAGCCAAAA | 1.02
TCCAGCCAGT | 1.01
CATTATATGC | 0.946
CTAAGCCATG | 1.13
GACTAGTATG | 1.05
